Data: the supplement of paper PMC4967469
The IC50 comes from the fitted curve, where viability falls to half of the control; where the fit passes the top or lowest dose, that dose stands as a limit. For AUC the same curve is integrated over the 256-fold range of doses and scaled to a fraction; values near 1 show little effect. For part of these data: The top dose, if marked as inferred, comes from the curve model; the source does not state it. For part of these data: Drugs with an entry number were screened twice under separate entries, and the two screens often disagree.

Columns and labels:
Assay in all cases: Viability of human cancer cell lines after 72 h of drug (GDSC screen)
SB-505124 = compound: Cc1cccc(-c2[nH]c(C(C)(C)C)nc2-c2ccc3c(c2)OCO3)n1 [SB-505124]; conditions: top dose 10 µM; top dose inferred
Experimental: (§1)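 Human cancer cell lines in 384-well plates, medium with 10% serum, drug for 72 h over a 256-fold dose range (nine 2-fold or five 4-fold steps up to the top dose). Adherent lines were fixed and stained with the nucleic acid dye Syto60, suspension lines read with resazurin; signal relative to control wells, capped at 0 and 100%. One two-parameter sigmoid per drug and line, fitted in a mixed model over all curves with the slope shared within a line.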

Tretinoin = compound: CC1=C(/C=C/C(C)=C/C=C/C(C)=C/C(=O)O)C(C)(C)CCC1 [Tretinoin]; conditions: top dose 10 µM; top dose inferred
Experimental: as §1

UNC0638 = compound: COc1cc2c(NC3CCN(C(C)C)CC3)nc(C3CCCCC3)nc2cc1OCCCN1CCCC1 [UNC0638]
Experimental: as §1

PI-103 = compound: Oc1cccc(-c2nc(N3CCOCC3)c3oc4ncccc4c3n2)c1 [PI-103]; conditions: top dose 10.24 µM
Experimental: as §1

GSK690693 = compound: CCn1c(-c2nonc2N)nc2c(C#CC(C)(C)O)ncc(OC[C@H]3CCCNC3)c21 [GSK690693]; conditions: top dose 10.24 µM; top dose inferred
Experimental: as §1

BX-795 = compound: O=C(NCCCNc1nc(Nc2cccc(NC(=O)N3CCCC3)c2)ncc1I)c1cccs1 [BX-795]; conditions: top dose 5 µM; top dose inferred
Experimental: as §1

[1] = top dose 20 µM, screen: GDSC drug entry 1236, top dose inferred
[2] = top dose 40 µM, screen: GDSC drug entry 245

Row | Cell Line | AUC (SB-505124) | IC50 (SB-505124) [µM] | AUC (Tretinoin) | IC50 (Tretinoin) [µM] | AUC (UNC0638; [1]) | IC50 (UNC0638; [1]) [µM] | AUC (UNC0638; [2]) | IC50 (UNC0638; [2]) [µM] | AUC (PI-103) | IC50 (PI-103) [µM] | AUC (GSK690693) | IC50 (GSK690693) [µM] | AUC (BX-795) | IC50 (BX-795) [µM]
1 | TK (B-cell lymphoma, suspension) | 0.978 | > 10 | 0.988 | > 10 | 0.803 | 8.89 | 0.753 | 12.3 | 0.24 | 0.124 | 0.868 | 7.96 | 0.986 | > 5
2 | TMK-1 (stomach, adherent) | 0.984 | > 10 | 0.986 | > 10 | 0.801 | 10.5 | 0.857 | 35.6 | 0.89 | > 10.2 | 0.97 | > 10.2 | 0.884 | > 5
3 | TOV-21G (ovary, adherent) | 0.976 | > 10 | 0.964 | > 10 | 0.979 | > 20 | 0.969 | > 40 | 0.637 | 1.59 | 0.98 | > 10.2 | 0.618 | 0.681
4 | TOV-112D (ovary, adherent) | 0.843 | 7.14 | 0.984 | > 10 | 0.852 | 15.6 | 0.753 | 13.5 | 0.304 | 0.179 | 0.984 | > 10.2 | 0.798 | 2.39
5 | TT2609-C02 (thyroid, adherent) | 0.97 | > 10 | 0.912 | > 10 | 0.985 | > 20 | 0.715 | 10.6 | 0.616 | 1.37 | 0.982 | > 10.2 | 0.719 | 1.37
6 | TYK-nu (ovary, adherent) | 0.914 | > 10 | 0.984 | > 10 | 0.825 | 13.2 | 0.808 | 22.4 | 0.959 | > 10.2 | 0.984 | > 10.2 | 0.828 | 3.38
7 | U-118-MG (glioma, adherent) | 0.956 | > 10 | 0.937 | > 10 | 0.984 | > 20 | 0.867 | > 40 | 0.427 | 0.391 | 0.916 | > 10.2 | 0.877 | > 5
8 | UACC-62 (melanoma, adherent) | 0.978 | > 10 | 0.988 | > 10 | 0.906 | > 20 | 0.975 | > 40 | 0.869 | 9.27 | 0.984 | > 10.2 | 0.922 | > 5
9 | UACC-893 (breast, adherent) | 0.98 | > 10 | 0.927 | > 10 | 0.98 | > 20 | 0.807 | 29.7 | 0.616 | 1.49 | 0.579 | 1.13 | 0.978 | > 5
10 | UWB1.289 (ovary, adherent) | 0.961 | > 10 | 0.916 | > 10 | 0.977 | > 20 | 0.855 | > 40 | 0.739 | 4.46 | 0.941 | > 10.2 | 0.927 | > 5
11 | VAL (B-cell lymphoma, suspension) | 0.969 | > 10 | 0.987 | > 10 | 0.77 | 7.66 | 0.611 | 5.06 | 0.302 | 0.177 | 0.886 | > 10.2 | 0.868 | 4.58
12 | VMRC-RCZ (kidney, adherent) | 0.98 | > 10 | 0.97 | > 10 | 0.981 | > 20 | 0.901 | > 40 | 0.868 | > 10.2 | 0.97 | > 10.2 | 0.832 | 3.95
13 | WM35 (melanoma, adherent) | 0.985 | > 10 | 0.973 | > 10 | 0.754 | 6.79 | 0.631 | 5.75 | 0.192 | 0.0767 | 0.966 | > 10.2 | 0.837 | 3.4
14 | WM793B (melanoma, adherent) | 0.977 | > 10 | 0.975 | > 10 | 0.822 | 13.4 | 0.664 | 7.52 | 0.441 | 0.435 | 0.948 | > 10.2 | 0.866 | > 5
15 | WM1552C (melanoma, adherent) | 0.986 | > 10 | 0.963 | > 10 | 0.809 | 10.6 | 0.671 | 7.49 | 0.333 | 0.219 | 0.976 | > 10.2 | 0.904 | > 5
16 | WM-115 (melanoma, adherent) | 0.971 | > 10 | 0.878 | > 10 | 0.8 | 12.2 | 0.675 | 8.66 | 0.345 | 0.216 | 0.861 | > 10.2 | 0.824 | 
17 | YAPC (pancreas, adherent) | 0.98 | > 10 | 0.974 | > 10 | 0.873 | > 20 | 0.792 | 23.1 | 0.973 | > 10.2 | 0.963 | > 10.2 | 0.907 | > 5
18 | YH-13 (glioma, adherent) | 0.945 | > 10 | 0.864 | 9.58 | 0.861 | 18.6 | 0.875 | > 40 | 0.559 | 0.934 | 0.912 | > 10.2 | 0.618 | 0.673
19 | YKG-1 (glioma, adherent) | 0.981 | > 10 | 0.97 | > 10 | 0.909 | > 20 | 0.865 | 36.1 | 0.43 | 0.41 | 0.898 | > 10.2 | 0.778 | 2.06
20 | huH-1 (liver, adherent) | 0.982 | > 10 | 0.968 | > 10 | 0.972 | > 20 | 0.984 | > 40 | 0.984 | > 10.2 | 0.984 | > 10.2 | 0.816 | 3.63
